Test results reported in PubChem BioAssay AID938 (National Center for Advancing Translational Sciences (NCATS), 2007).
Values joined by “and” are separate entries in the source; they are usually repeats but may differ in a detail not shown here. Equal values may be shown once. Screen size: about 73,000 compounds; about 1,800 (2.5%) were called active. The inconclusive results got no clear call from the source; some entries with a clear call stand among them for comparison. Calls come from the whole dose curve; as a rule, active = well fitted activation curve with a large enough effect; inconclusive = small, poorly fitted or top-dose-only effect; inactive = no such curve, though single readings can be large or run the other way. Potencies of inconclusive entries are left out as doubtful fits.

Assay: qHTS Assay for Agonists of the Thyroid Stimulating Hormone Receptor: Activators of Intracellular cAMP Concentrations in Parental HEK 293; note: nearly all actives have a fitted effect of over 55% in size; for activation: % of control where 0% means no effect
Details: parental HEK293 CNG cAMP sensor, membrane potential fluorescence; activation: at 57.1 µM (top of the series) unless noted
Procedure, shortened: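 Counterscreen for endogenous-receptor signalling: CNG-channel HEK 293 cells report cAMP rise by membrane depolarization. After 60 min dye equilibration with 100 uM RO 20-1724, compounds incubated 30 min before bottom-read fluorescence at 590 nm.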
Potency is the fitted concentration of half-maximal effect; tags give direction and shape of the fitted curve.

Question: Which activation does the source give for `c1ccsc1` here?
Answer: inconclusive: 46.1% [activator]

Question: Which Potency does the source give for `CCn1c(COc2cccc(OC)c2)nnc1SCC(=O)Nc1cc(OC)ccc1OC` here?
Answer: inconclusive [activator, full curve]

Question: For `Cc1cccn2c(=O)c3cc(C(=O)NCCCn4ccnc4)n(C)c3nc12`, which Potency is on record?
Answer: inconclusive [activator, single point]

Question: For `C[C@@H]1CCCN(C[C@@H](O)CN2CCCc3ccccc32)C1`, which activation is on record?
Answer: inactive: 19.9% [at 11.4 µM]

Question: For `CCOc1ccccc1NC(=O)C1CCN(S(=O)(=O)c2cccc3cccnc23)CC1`, which Potency is on record?
Answer: inconclusive [activator, single point]

Question: Which Potency does the source give for `COc1ccc(C(=O)N(CCCO)C(C)C(=O)NC2CCCCC2)cc1OC` (centres undefined) here?
Answer: inconclusive [activator, single point]

Question: Which Potency does the source give for `COc1cccc(C2CC(=O)Nc3cc4c(cc32)OCCO4)c1OC(C)C` (centres undefined) here?
Answer: inconclusive [activator, partial curve]

Question: With `Nc1ncnc2c1ncn2[C@@H]1O[C@@H](C(=O)NC2CC2)[C@H](O)[C@@H]1O` as the compound, how does the Potency read?
Answer: active: 0.251 µM

Question: With `CC1=C(C(=O)NCc2ccccn2)C2(CCC(C)CC2)OC1=O` (centres undefined) as the compound, how does the Potency read?
Answer: inconclusive [activator, single point]

Question: With `Cc1c(C(=O)N2CCN(c3ccc(C(F)(F)F)cn3)CC2)oc2ccccc12` as the compound, how does the Potency read?
Answer: inconclusive [activator, partial curve]

Question: Which Potency does the source give for `Cn1c(=O)n(CCOc2ccccc2Cl)c2ccccc21` here?
Answer: inconclusive [activator, full curve, poor fit]

Question: Which Potency does the source give for `N#Cc1c(N)nc2c(c1-c1ccc3c(c1)OCO3)CCCCCC2` here?
Answer: inconclusive [activator, single point]

Question: Which “activation” value does the source give for `CN1CCN(c2ccc(NC(=O)c3cccc(OCc4ccccc4)c3)cc2)CC1` here?
Answer: inactive: -20.2%

Question: For `Clc1ccc(C2=Nn3c(nnc3-c3n[nH]c4c3CCC4)SC2)cc1Cl`, which Potency is on record?
Answer: inconclusive [activator, single point]

Question: For `COc1ccccc1Oc1cc(C#N)c(C#N)cc1-n1nnc2ccccc21`, which Potency is on record?
Answer: inconclusive [activator, full curve]

Question: For `Cc1ccc(CNC(=O)C2CCCN(S(C)(=O)=O)C2)cc1` (centres undefined), which Potency is on record?
Answer: inconclusive [activator, partial curve]

Question: Which “activation” value does the source give for `Cc1ccc(N=c2oc3cc(O)ccc3cc2C(N)=O)cc1` here?
Answer: inactive: 2.49%

Question: Which “activation” value does the source give for `O=S(=O)(/C=C/c1ccccc1)Nc1ccc(N2CCOCC2)cc1` here?
Answer: inactive: 16.4%

Question: With `c1ccc(-c2noc(CSc3nc4ccccc4o3)n2)cc1` as the compound, how does the Potency read?
Answer: inconclusive [activator, single point]

Question: Which Potency does the source give for `O=c1c2c3c(sc2nc2n1CCC2)CCC3` here?
Answer: inconclusive [activator, single point]

Question: Which Potency does the source give for `Cc1ccc(-n2[nH]c(C)c(/C=N/c3ccccn3)c2=O)cc1` here?
Answer: inconclusive [activator, partial curve]

Question: With `O=C(Nc1ccc2c(c1)OCO2)c1ccc(COc2ccc3c(c2)CCC3)o1` as the compound, how does the Potency read?
Answer: inconclusive [activator, partial curve]

Question: For `COc1ccc(N2CCN(C(=O)CSc3nnc(CNc4ccccc4)o3)CC2)cc1`, which “activation” value is on record?
Answer: inactive: 7.24%

Question: Which “activation” value does the source give for `N#CCCn1c(=O)c(CCc2ccccc2)nc2cnc(N3CCOCC3)nc21` here?
Answer: inactive: 15.3%

Question: With `CC1N/C(=C\C(=O)c2ccccc2)N(O)C1(C)C` (centres undefined) as the compound, how does the “activation” value read?
Answer: inactive: 6.45%

Question: For `COC(=O)c1ccc(CSc2ncnc3c2nnn3-c2ccc(F)cc2)o1`, which Potency is on record?
Answer: inconclusive [activator, single point]

Question: With `COc1ccc(CNc2ncncc2-c2ccc(N(C)C)cc2)c(OC)c1` as the compound, how does the Potency read?
Answer: inconclusive [activator, full curve]

Question: For `COc1ccccc1-c1cc(C(=O)Nc2cc(C)n(Cc3ccc(Cl)cc3)n2)no1`, which Potency is on record?
Answer: active: 3.16 µM

Question: Which Potency does the source give for `O=C(C1CCCN(Cc2ccccc2Br)C1)N1CCCCC1` (centres undefined) here?
Answer: inconclusive [activator, partial curve]

Question: With `COc1cc2c(cc1OC)-c1cc(NC3CCCCCCC3)nc(=O)n1CC2` as the compound, how does the Potency read?
Answer: inconclusive [activator, single point]

Question: With `NC(=O)c1ccc[n+]([C@@H]2O[C@H](COP(=O)([O-])OP(=O)(O)OC[C@H]3O[C@@H](n4cnc5c(N)ncnc54)[C@@H](O)[C@@H]3O)[C@@H](O)[C@@H]2O)c1` as the compound, how does the “activation” value read?
Answer: inactive: -4.47% [at 25.6 µM]

Question: With `Cc1c(Cl)cccc1NC(=O)CSc1nnc(CCNC(=O)OC(C)(C)C)o1` as the compound, how does the Potency read?
Answer: inconclusive [activator, partial curve]

Question: With `COc1ccc(-c2cc(C(F)F)n3ncc(C(=O)NCC4CCCO4)c3n2)cc1` (centres undefined) as the compound, how does the Potency read?
Answer: active: 7.94 µM

Question: With `Cc1ccccc1S(=O)(=O)Cc1ccc(C(=O)N2CCN(c3cccc(C)c3C)CC2)o1` as the compound, how does the Potency read?
Answer: inconclusive [activator, single point]

Question: For `O=c1c2ccccc2nc(SCc2cn3ccsc3n2)n1-c1ccccc1F`, which Potency is on record?
Answer: inconclusive [activator, single point]

Question: Which activation does the source give for `C/C(CCN1CCCc2nc(C)c(C)cc21)=N\O[C@@H](C)c1cn([C@@H]2COC[C@@H]2O)nn1` here?
Answer: inactive: 2.29% [at 11.4 µM]

Question: With `Fc1ccc(-c2noc(C3CCN(Cc4cccnc4)CC3)n2)cc1` as the compound, how does the Potency read?
Answer: inconclusive [activator, partial curve]

Question: With `CCc1cc2c(nc1CC)CCN(CC/C(C)=N/O[C@@H](C)c1cn([C@H](CO)Cc3ccccc3)nn1)C2` as the compound, how does the activation read?
Answer: inactive: 3.22% [at 11.4 µM] and inactive: 7.32% [at 11.4 µM]

Question: For `O=c1[nH]c2ccc(Br)cc2c(-c2ccccc2)c1N1CCOCC1`, which Potency is on record?
Answer: inconclusive [activator, partial curve]

Question: For `O=C(C(Cc1ccccc1)n1cccc1)N1CCN(C2CCCCC2)CC1` (centres undefined), which Potency is on record?
Answer: inconclusive [activator, single point]

Question: For `COc1ccc(CCNC(=O)CCSc2nc(-c3ccco3)cc(C(F)(F)F)n2)cc1`, which Potency is on record?
Answer: inconclusive [activator, partial curve]

Question: For `CCCCn1c(Oc2ccc(C(=O)OC)cc2)nc2c1c(=O)n(C)c(=O)n2C`, which Potency is on record?
Answer: inconclusive [activator, partial curve]

Question: For `CCOC(=O)C(CC)Sc1nc2c(c(=O)[nH]c(=O)n2C)n1C/C=C(/C)Cl` (centres undefined), which Potency is on record?
Answer: inconclusive [activator, single point]

Question: With `Cc1c(C(=O)NCc2cccnc2)oc2ccc(S(=O)(=O)N3CCCC(C)C3)cc12` (centres undefined) as the compound, how does the Potency read?
Answer: inconclusive [activator, single point]

Question: With `CC(=O)Nc1ccc(S(=O)(=O)NC(CC(=O)NC2CCCCC2C)C(C)C)cc1` (centres undefined) as the compound, how does the Potency read?
Answer: inconclusive [activator, partial curve]

Question: For `Fc1ccc(-c2nnc(SCc3ncc(-c4ccccc4)o3)n2CC2CCCO2)cc1` (centres undefined), which Potency is on record?
Answer: inconclusive [activator, partial curve]

Question: Which Potency does the source give for `O=C(Oc1ccccc1)N1CCC2(CC1)CCN(c1ccccn1)CC2` here?
Answer: active: 12.6 µM

Question: Which “activation” value does the source give for `Nc1ccc(N=Nc2ccccc2)c(N)c1` here?
Answer: inactive: -48%

Question: With `O=C(Nc1ccc(Cl)cc1)N(Cc1cccs1)Cc1cccs1` as the compound, how does the Potency read?
Answer: inconclusive [activator, single point]

Question: Which Potency does the source give for `Cc1ccc2ccc(S(=O)(=O)n3nc(C)cc3C)cc2c1` here?
Answer: inconclusive [activator, full curve]

Question: Which “activation” value does the source give for `O=C(c1cnccn1)N1CCC2(CC1)CCN(c1cccc(-c3ccccc3)c1)CC2` here?
Answer: inactive: 28.2%

Question: Which Potency does the source give for `CC(C)OCC(O)CSc1ccccn1` (centres undefined) here?
Answer: inconclusive [activator, single point]

Question: Which Potency does the source give for `COC(=O)C1=C(C(=O)c2ccccc2)C(c2cccs2)n2nnnc2N1` (centres undefined) here?
Answer: inconclusive [activator, single point]

Question: With `CCOC(=O)N1CCC(n2c(SCC(=O)Nc3ccccc3OC)nc3ccccc3c2=O)CC1` as the compound, how does the Potency read?
Answer: inconclusive [activator, single point]

Question: Which Potency does the source give for `Cc1ccc(C)c(Cn2cnc3c(cnn3C(C)(C)C)c2=O)c1` here?
Answer: inconclusive [activator, partial curve]

Question: With `O=C(c1cnccn1)N1CCC[C@@]2(CCN(Cc3ccncc3)C2)C1` as the compound, how does the Potency read?
Answer: inconclusive [activator, single point]

Question: Which “activation” value does the source give for `COCCSc1ccccc1C(=O)Nc1nccs1` here?
Answer: inactive: -17%

Question: For `Cc1cc(C)n(CC(O)COc2ccccc2C(=O)Nc2ccccc2)n1` (centres undefined), which Potency is on record?
Answer: inconclusive [activator, partial curve]

Question: For `Cc1ccc(CCCC(=O)O)cc1C`, which activation is on record?
Answer: inactive: 26.3% [at 11.4 µM]

Question: For `CCCCN(CC)CCCNC(=O)CS(=O)(=O)Cc1nc(-c2cccc(OC)c2)oc1C`, which Potency is on record?
Answer: inconclusive [activator, single point]

Question: Which Potency does the source give for `COC(=O)N1CCC2(CCCN(C(c3ccccc3)c3ccccc3)C2)CC1` here?
Answer: inconclusive [activator, partial curve]

Question: With `Cc1ccc(C)c(N(CC(=O)NC2CCCCC2)C(=O)CCC(=O)Nc2ccccn2)c1` as the compound, how does the Potency read?
Answer: inconclusive [activator, full curve]

Question: For `Cc1ccc2c(CC(=O)OC3CCOC3=O)coc2c1` (centres undefined), which Potency is on record?
Answer: inconclusive [activator, full curve, poor fit]

Question: Which “activation” value does the source give for `O=C(/C=C/Nc1cccc(O)c1)c1ccccc1` here?
Answer: inactive: 9.65%

Question: Which “activation” value does the source give for `Cc1cccc2nc(CSCc3ccco3)cn12` here?
Answer: inactive: 3.97%

Question: For `Cc1csc(NC(=O)c2cc3c(s2)-c2ccccc2OC3)n1`, which “activation” value is on record?
Answer: inactive: 22.4%

Question: Which Potency does the source give for `O=C(CN1CCN(S(=O)(=O)c2ccc(Br)cc2)CC1)Nc1ccc2c(c1)OCO2` here?
Answer: inconclusive [activator, partial curve]

Question: Which “activation” value does the source give for `CCOC(=O)C1CCN(c2ncnc3c2[nH]c2cccc(OC)c23)CC1` here?
Answer: inactive: -9.29%

Question: Which Potency does the source give for `COc1ccc(Cn2nnnc2CN(Cc2cc3ccc(C)cc3[nH]c2=O)C2CCCC2)cc1` here?
Answer: inconclusive [activator, partial curve]
